Assay results reported in the supplement of paper PMC10126150.
Values marked as one replicate rest on one cluster of the flow cell; about a third of the high ones do not repeat.

System: ATP
Assay: switch fluorescence ratio, 500 uM ATP over buffer (Cy3 cluster intensity, sum of 5 cycles each) (fold (ratio)); higher = stronger signal-on switching upon ATP binding; sequences stand for … in TCGTCGGCAGCGTCAGATGTGTATAAGAGACAGTTTTTTTTTTTTTTTTTTTTTTTTT…TC
Conditions: aptamer strand: ATP DNA aptamer (quencher-CACCTGGGGGAGTATTGCGGAGGAAGG + anchor), 100 nM annealed; ATP concentration: 500 uM; one replicate
Outline: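 Between each of five buffer/ATP cycles, the flow-cell was stripped with NaOH and re-annealed. Each cycle imaged Cy3-labelled switching-strand clusters, annealed to 100 nM quencher-labelled ATP aptamer on a modified Illumina MiSeq flow-cell, first in selection buffer and then after 15 min with 500 uM ATP at 22 °C. The fluorescence ratio is summed target-cycle over summed buffer-cycle Cy3 intensity per cluster, averaged per switch-domain sequence, with clusters outside 100-1000 RFU excluded.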
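Also: ATP exposure 15 min at 22 °C before imaging.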

Row | Sequence | switch fluorescence ratio
1 | TGGAAGCG | 0.972
2 | TCCGAGTCC | 1.29
3 | TTGTGGCTAC | 1.01
4 | CAGGGGGCCC | 0.995
5 | CGATGGAAA | 0.967
6 | TTCATGTTAC | 1.28
7 | GGACCAGTG | 0.94
8 | ATCGATTCGG | 1.02
9 | TCGAAAGAAA | 1.02
10 | AGTATCCAAT | 1.03
11 | TGGAAACGGA | 0.985
12 | CATCAATTTT | 1
13 | CCGGTTTGCA | 1.37
14 | ACCAAGTCG | 1.02
15 | TTTATTGCCT | 1.02
16 | AAGATAGGCT | 1.02
17 | TCTTGGGATA | 1.01
18 | GTTAGTTGGG | 0.965
19 | GAGACCAATG | 0.939
20 | CGACACGATG | 1.05
21 | GTCGTTGTTG | 0.99
22 | CTCGAAGTTA | 0.961
23 | AATGCAACTC | 1.1
24 | CTTATGAGG | 0.991
25 | GTGATCCTCG | 1.02
26 | ACGTGAATGT | 1.04

Row | Sequence | switch fluorescence ratio
27 | GGAAAAGGAC | 1.04
28 | TGAACCCCGA | 1
29 | AATGAGGATA | 1.01
30 | CAGTGAGAGT | 1.02
31 | AGAGGAGATT | 1
32 | TAGTCTTATT | 0.976
33 | AAGTACTCAC | 1.34
34 | GGGGCGGAAC | 1.08
35 | GTGGGGCTCC | 1.02
36 | CGATGTGAG | 0.984
37 | GCCTTTATGA | 1.02
38 | CAACCTGCGG | 1.04
39 | CTGTCTGTAA | 1.08
40 | GTGATACGCA | 1.1
41 | CAGCCATGTG | 1.13
42 | TCACGGCCCT | 1.07
43 | TCTAGGAAGA | 0.987
44 | ATACGGTATG | 1.09
45 | TATGCTTTCT | 1.01
46 | GTGCCTGATT | 0.982
47 | TTGCTATGAG | 1.01
48 | GGTTGAAGAA | 0.995
49 | TGAGACCCGC | 1.04
50 | GTAGCCCTAG | 1.01
51 | TTGCTCATGT | 0.965
52 | GCTCTATCG | 0.971

Row | Sequence | switch fluorescence ratio
53 | TTGCCCGTGA | 1.07
54 | ATCAAAGTAC | 1.45
55 | AGCGTATGTT | 1.02
56 | GATTCCGCGG | 1.17
57 | TGTGGATTTT | 0.993
58 | ACGACCTACA | 1.37
59 | AGAACACTC | 1.03
60 | TCCTCAATTT | 1.17
61 | AACCTAGGGT | 1.07
62 | GTATGACGAT | 1.02
63 | TTCTATTTGG | 0.996
64 | AGCACGAATC | 1.06
65 | GAGTTAACTT | 1.02
66 | TGGTAACAAT | 0.987
67 | CGGTCGTTTT | 1.01
68 | TCGCACCTGA | 1.07
69 | CCGGACGATA | 1.58
70 | ACAAGTATGG | 0.97
71 | AACATTGACA | 1.17
72 | GTGGAAAACC | 0.958
73 | CGACAGGAA | 1.19
74 | TTATATTT | 1.01
75 | AGGTCAATTG | 1.02
76 | GGCCTGGGAT | 1
77 | GAATCAGATT | 0.969
78 | GTGGTGAAAC | 1.05

Row | Sequence | switch fluorescence ratio
79 | ATGAATGGG | 0.963
80 | GGTGTGGCTG | 1.07
81 | GCAGAGAGGG | 0.991
82 | CGTTACCGCG | 1.03
83 | AGGTTGCGAA | 0.959
84 | ATCTGCCGCT | 1.06
85 | TTGGACTCCC | 1.45
86 | ACCACAATCG | 1.08
87 | CAAACAATCG | 0.958
88 | AAATAATAGT | 0.975
89 | AGGGTGTTAC | 0.949
90 | GAGAATTTTT | 0.975
91 | GAGAGAGCAC | 1.01
92 | GGATGTGCTC | 1
93 | GAAATGGTAA | 1.04
94 | CTGCATTCAG | 1.06
95 | GAGTCTACTT | 1.02
96 | TAATGGCTCC | 1.06
97 | CGGAATAACA | 1.09
98 | TTAGCTGAAA | 1
99 | TAGTAGTAAG | 1.03
100 | TGGCGCCCCG | 1.01
101 | CTACGTGGGT | 0.993
102 | GTTAATAGCC | 0.963
103 | TGGTACATGT | 1
104 | AAGGACGATG | 1.03

Row | Sequence | switch fluorescence ratio
105 | GCGATGTTTC | 1.1
106 | AATAGGATCA | 0.984
107 | GGCGTGTTCT | 0.982
108 | ATCGGTGAGT | 0.978
109 | GTCGGAAGG | 0.977
110 | CAGAAGTTG | 1.03
111 | TTCCTATTGG | 1
112 | TCGCAACGG | 1.01
113 | AGTTGAGTGT | 0.995
114 | GATCACGATC | 1
115 | AAGAGTAATC | 1
116 | GCCACATTTC | 1.06
117 | GGAGTATGCT | 1.04
118 | AATTGCACTG | 0.956
119 | CACCTGTGC | 1.05
120 | AGCTGCTAGA | 1.02
121 | TTTGTTGG | 0.985
122 | TTATGATTTT | 0.988
123 | GAAGGTCGAG | 1.01
124 | CAGATCACCC | 1.04
125 | ATATTCGCCT | 1.02
126 | GTCACCAATT | 1.01
127 | CCGGAGAAAG | 2.35
128 | CGAATGCAGT | 0.978
129 | TTGCGGCGAA | 0.995
130 | CCTGGGAGCG | 1.02

Row | Sequence | switch fluorescence ratio
131 | GTCCTAGCTA | 1.06
132 | GGATTTGACG | 1
133 | CTGCATCCGA | 1.37
134 | CAAGGACGGC | 0.97
135 | ACAAACTATT | 1.03
136 | CCTCCCGAGT | 4.66
137 | TGATAAATTC | 0.971
138 | TCCGTGTGCT | 1.05
139 | ACGCAGTTAC | 4.15
140 | TAGTCTCAGA | 1.01
141 | CGTTATAGTA | 0.981
142 | CCCCGTCTGG | 0.975
143 | TACGTGCCCG | 1.09
144 | AGAGATAGTA | 1.06
145 | GCAGTTGCGG | 1.02
146 | TGTAAGTTAC | 1.09
147 | GCTTGGTGAC | 1.01
148 | CTGCTACCAC | 1.39
149 | GTTTCGACGC | 1.26
150 | TAGATCTACG | 1.02
151 | AGGATCTGCG | 0.948
152 | CGCGTCAGGA | 1
153 | GCCGAGCGG | 1.01
154 | ATAATAAA | 0.956
155 | ACGTGGAGAG | 1.02
156 | ATGCTCACTT | 1.01

Row | Sequence | switch fluorescence ratio
157 | CCTTGAGTTT | 0.995
158 | TAGCGCCCTG | 0.988
159 | TAATGCCTCG | 0.994
160 | TTCTGAACCG | 1.11
161 | CTCAGATAGC | 1.1
162 | AGTTTACCGT | 0.992
163 | AGGGGTAACA | 1.05
164 | TCTCGGTCGA | 0.996
165 | CGATTGGCGG | 0.952
166 | AAGCGTGTTC | 1.05
167 | TAAGTGCGCG | 1.05
168 | TTCGCATAAA | 1.18
169 | TATCACTGGG | 1.06
170 | TGATCGTACT | 1.02
171 | TCTGTGCCAT | 1.02
172 | AAAGTTTCTA | 0.992
173 | GCCCCCATAA | 1.07
174 | TTAAACGCGC | 1.06
175 | TCCTTGAATT | 1.5
176 | TCGTTAAGGA | 0.996
177 | TCATGGGTCT | 1.04
178 | AGATCTGTCG | 1.06
179 | GCTCCCAGGC | 1.79
180 | TCTCGTGGT | 1.04
181 | TAATGGTCAG | 0.962
182 | CGAGTTACTT | 1.06

Row | Sequence | switch fluorescence ratio
183 | GTATATGTAT | 0.972
184 | AAGCCGATAG | 1.03
185 | AAGGGATCCA | 0.995
186 | TAATACTACT | 1.41
187 | GAGAGTCGTG | 1.02
188 | ATTTGCATAT | 1.01
189 | CTTTCACGTG | 1.01
190 | TAATGGCAGT | 0.983
191 | TGCGCTACT | 1.24
192 | TCAAATTAT | 0.932
193 | GGTGGAGGTA | 0.989
194 | CTTTTATTCA | 0.966
195 | CCATACTACA | 1.11
196 | GTCTATTTGG | 1.03
197 | CAAGGGTAAC | 1.01
198 | AAACTAGGCT | 1.01
199 | CCATGTCACT | 0.967
200 | GGATACCCCG | 1.08
201 | TACCAGCTGC | 1.07
